Assay results as given in the supplement of paper PMC3334620.
In all, about 33,000 sequences were measured (“E-score (-0.5 to 0.5)”: median about -0.054, highest 2% from about 0.35 on). This is one part of the list.

These sequences were tested against T1, Stb5 (UniProt P38699) (assay: PBM E-score (8-mer binding enrichment) (E-score (-0.5 to 0.5)); higher = stronger / more preferred TF binding; most listed sequences are background and not binding sites). Conditions: protein concentration: 200 nM; construct: GST-full length.
T1 sequence: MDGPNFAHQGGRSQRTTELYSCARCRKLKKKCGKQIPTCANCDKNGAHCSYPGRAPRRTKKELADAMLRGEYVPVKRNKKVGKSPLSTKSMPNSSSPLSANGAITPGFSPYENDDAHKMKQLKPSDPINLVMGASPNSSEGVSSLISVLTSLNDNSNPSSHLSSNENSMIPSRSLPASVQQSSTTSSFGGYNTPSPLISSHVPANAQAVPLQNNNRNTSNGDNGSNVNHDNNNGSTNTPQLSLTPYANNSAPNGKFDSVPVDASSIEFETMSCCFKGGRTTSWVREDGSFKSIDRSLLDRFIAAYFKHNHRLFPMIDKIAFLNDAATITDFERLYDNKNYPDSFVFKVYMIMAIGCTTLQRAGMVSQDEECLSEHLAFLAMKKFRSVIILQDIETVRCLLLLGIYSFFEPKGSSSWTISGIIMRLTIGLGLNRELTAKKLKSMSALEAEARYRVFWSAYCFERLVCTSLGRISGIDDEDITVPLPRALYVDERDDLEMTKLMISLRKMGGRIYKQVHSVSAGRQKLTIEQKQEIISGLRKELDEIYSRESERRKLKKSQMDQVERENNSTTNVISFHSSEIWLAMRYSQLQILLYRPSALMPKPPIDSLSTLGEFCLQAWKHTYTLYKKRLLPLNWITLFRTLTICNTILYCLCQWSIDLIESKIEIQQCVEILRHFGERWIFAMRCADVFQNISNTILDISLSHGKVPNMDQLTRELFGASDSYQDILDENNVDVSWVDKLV
Summary of the method: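 The E-score, a modified Wilcoxon-Mann-Whitney statistic, was computed by the Universal PBM Analysis Suite for every ungapped eight-base word pooled with its reverse complement. Scans behind it were normalised with masliner after bound GST-tagged yeast transcription factors were detected with fluorescent anti-GST. The proteins, at about 100-200 nM, had been applied to universal all-10-mer Agilent arrays made double-stranded by primer extension.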

Compared with CCGTTCTA, CGCATCAG is lower in “PBM E-score” value: 0.232 for the first, 0.214 for the second.

Going from CCGCAACA to ACGGGTCG, the “PBM E-score” value falls from 0.245 to 0.203.

First: ATATCACC
Second: TGAAGGAA
The “PBM E-score” value of the first is higher: 0.436 for the first, -0.318 for the second.

Going from CGCGCCAA to ATTTAATG, the “PBM E-score” value rises from 0.0894 to 0.178.

Going from AGAGCCGC to ACGAAGCT, the “PBM E-score” value falls from 0.287 to -0.126.

First: ACATTGGA
Second: ATGTAGCC
The “PBM E-score” value of the first is lower: -0.105 for the first, -0.0209 for the second.

Going from CCGGTTAC to ATCAACCA, the “PBM E-score” value falls from 0.261 to -0.105.

First: CCGAGCCG
Second: ATGATCAA
The “PBM E-score” value of the first is higher: 0.207 for the first, -0.267 for the second.

First: GGTCCTAC
Second: TATTGAAA
The “PBM E-score” value of the first is higher: 0.0984 for the first, -0.0523 for the second.

Compared with GCTGATCA, ATTGCCCG is higher in “PBM E-score” value: -0.00416 for the first, 0.154 for the second.

Compared with ATTCTTGA, CATGGCAG is lower in “PBM E-score” value: -0.0618 for the first, -0.135 for the second.

First: AGCGCTGA
Second: GCGCCCAC
The “PBM E-score” value of the first is higher: 0.102 for the first, -0.0168 for the second.

Going from AGAGGGCA to ACGAAACT, the “PBM E-score” value rises from -0.221 to -0.0523.

Compared with CGCAGCGC, ATTCGTCC is higher in “PBM E-score” value: 0.101 for the first, 0.122 for the second.

First: ATATACGA
Second: ACATGTCT
The “PBM E-score” value of the first is lower: -0.181 for the first, 0.108 for the second.

Going from ATAGCGAC to AAAGTGAG, the “PBM E-score” value falls from 0.0524 to -0.227.

Going from AAGCAACG to ATGACTGA, the “PBM E-score” value falls from -0.00766 to -0.0871.

Going from GAACCGCA to AACCTAGA, the “PBM E-score” value falls from 0.106 to -0.091.

First: AATGCTAC
Second: CTAGTGGA
The “PBM E-score” value of the first is lower: -0.138 for the first, -0.00518 for the second.

Going from GTCTCTTA to CGCATTCA, the “PBM E-score” value rises from 0.00152 to 0.0783.

First: ACCCAATA
Second: CAACACAA
The “PBM E-score” value of the first is higher: -0.156 for the first, -0.226 for the second.

First: ATAACATG
Second: AGCGCTGC
The “PBM E-score” value of the first is lower: -0.0711 for the first, 0.0385 for the second.

Compared with TGGGGTAA, AATGGGCT is lower in “PBM E-score” value: 0.163 for the first, -0.324 for the second.

First: GCGCGGCC
Second: CATGCGCA
The “PBM E-score” value of the first is higher: 0.268 for the first, -0.217 for the second.

Going from ACGCCCTG to CCGACGCA, the “PBM E-score” value rises from -0.0686 to 0.33.

First: AACCGGAA
Second: CCGCGTCG
The “PBM E-score” value of the first is lower: 0.141 for the first, 0.283 for the second.

Going from AAGAGGGG to GCTTTAAA, the “PBM E-score” value rises from -0.0776 to 0.228.

Going from GATAATAC to AATGTAAG, the “PBM E-score” value falls from 0.0961 to -0.172.

First: ATACATAT
Second: ACGCAGGA
The “PBM E-score” value of the first is higher: -0.0276 for the first, -0.24 for the second.

Compared with CGCAAATA, CCCTCACC is lower in “PBM E-score” value: 0.0421 for the first, -0.225 for the second.

Going from GATTTCAC to GCCGCCAA, the “PBM E-score” value rises from 0.111 to 0.24.

First: GGGCGTCA
Second: ACGAAATC
The “PBM E-score” value of the first is lower: -0.101 for the first, -0.0971 for the second.

Going from AGCGATCG to CAATCGCC, the “PBM E-score” value rises from -0.0556 to 0.0945.

Compared with AATTCAAT, ATCAGCAC is lower in “PBM E-score” value: 0.0123 for the first, -0.156 for the second.

Going from GAACATGC to AGTCGAAC, the “PBM E-score” value rises from -0.305 to -0.14.

Compared with TCCTCTAA, TAGGGTGA is higher in “PBM E-score” value: -0.28 for the first, -0.139 for the second.

Compared with CCAGACAA, TAACCCGA is higher in “PBM E-score” value: -0.116 for the first, 0.225 for the second.

Compared with TACTACGA, CTACCCTA is lower in “PBM E-score” value: -0.136 for the first, -0.269 for the second.

First: CCGAGTAA
Second: CTGAAGAC
The “PBM E-score” value of the first is lower: 0.0188 for the first, 0.0792 for the second.

Compared with GACTGCAC, ACGACTTA is lower in “PBM E-score” value: -0.173 for the first, -0.194 for the second.

Going from GGTCACAC to AGTCCAGA, the “PBM E-score” value falls from 0.0378 to -0.041.

Compared with AGGAGCTA, ATCCCGTA is higher in “PBM E-score” value: -0.0145 for the first, 0.205 for the second.

Going from AAGGGATC to CAGCACCG, the “PBM E-score” value rises from -0.0944 to 0.313.

Going from ACAAATAC to ATCGGGAC, the “PBM E-score” value rises from -0.0655 to 0.255.

Compared with CGTCTCCA, CCCACCCC is higher in “PBM E-score” value: 0.06 for the first, 0.165 for the second.

Going from AGCCTCTA to CAGAGTGC, the “PBM E-score” value falls from -0.177 to -0.193.

Compared with AATAAACG, AGATATTC is lower in “PBM E-score” value: 0.0953 for the first, -0.281 for the second.

First: ACATCTTG
Second: AGGAGCAC
The “PBM E-score” value of the first is higher: -0.169 for the first, -0.252 for the second.

Compared with CATGTGTA, AGGCCAAG is lower in “PBM E-score” value: -0.0555 for the first, -0.115 for the second.

First: AACAGGGA
Second: CGAATGCA
The “PBM E-score” value of the first is higher: -0.177 for the first, -0.296 for the second.

Going from ACGGCCTC to ACTTGCTG, the “PBM E-score” value falls from 0.197 to -0.274.

Compared with TCCGCCAA, CTCATTAC is lower in “PBM E-score” value: 0.295 for the first, -0.0772 for the second.

Compared with GTTTACAA, GGCATGCA is higher in “PBM E-score” value: 0.0105 for the first, 0.0835 for the second.

First: AACCCTAC
Second: ATGGACCC
The “PBM E-score” value of the first is lower: -0.32 for the first, 0.137 for the second.

Going from ATTATACG to GGCTCGTA, the “PBM E-score” value falls from 0.173 to -0.0961.

First: CATACCGA
Second: CCCCCAGC
The “PBM E-score” value of the first is higher: 0.279 for the first, -0.256 for the second.

Compared with AAGACTTA, AACCGAAA is higher in “PBM E-score” value: -0.277 for the first, -0.0451 for the second.

First: AGTCTGCC
Second: AGACCTGC
The “PBM E-score” value of the first is higher: -0.237 for the first, -0.354 for the second.

Compared with CGACTGGA, GGTCCCAA is higher in “PBM E-score” value: -0.0921 for the first, 0.129 for the second.

First: AAGCAGGA
Second: CCATATGG
The “PBM E-score” value of the first is higher: 0.0511 for the first, -0.258 for the second.

Going from TCTGCCAA to GGCCTTAA, the “PBM E-score” value rises from -0.231 to 0.377.

Compared with AGACGATA, AATGCGGA is higher in “PBM E-score” value: -0.0951 for the first, 0.2 for the second.

Going from TACCGGTA to GGGCTGTA, the “PBM E-score” value falls from 0.36 to -0.0498.

Compared with ATGTGACC, ATGAGAGA is lower in “PBM E-score” value: 0.211 for the first, -0.26 for the second.

Going from AACCAAGT to CTGAGTCA, the “PBM E-score” value falls from 0.00232 to -0.0224.

Going from ACCTATCA to CTATACGA, the “PBM E-score” value rises from -0.0967 to -0.028.

Compared with CACGGCGG, AAGATAAG is lower in “PBM E-score” value: 0.297 for the first, -0.159 for the second.

Going from ACCTAGTA to TTCTGCAA, the “PBM E-score” value rises from -0.226 to -0.0238.

Compared with ATATGCTC, ATACGCAT is lower in “PBM E-score” value: 0.0682 for the first, -0.16 for the second.

First: CCTGGTCA
Second: AAGGCCCA
The “PBM E-score” value of the first is lower: -0.214 for the first, -0.17 for the second.

Going from AGATCGTG to CACGCATG, the “PBM E-score” value falls from -0.171 to -0.221.

Compared with AATCATCT, ACTAGGGG is lower in “PBM E-score” value: -0.0985 for the first, -0.175 for the second.

First: TGCCTACA
Second: GCGGGGAC
The “PBM E-score” value of the first is lower: -0.0809 for the first, 0.322 for the second.

First: GTGGTTAA
Second: AGGTATAA
The “PBM E-score” value of the first is lower: -0.133 for the first, 0.126 for the second.

Going from CGTCGTGC to AATGTAAA, the “PBM E-score” value falls from 0.0585 to -0.0417.

Going from GTTAGCTA to GCAGACAC, the “PBM E-score” value falls from -0.0196 to -0.0617.

Compared with ATCAAATG, CCGGAATA is higher in “PBM E-score” value: 0.0982 for the first, 0.101 for the second.

Compared with GTTAAGCA, AGAATGCA is lower in “PBM E-score” value: 0.135 for the first, -0.0784 for the second.

Compared with CGGCATGC, ATAGGAGA is lower in “PBM E-score” value: 0.273 for the first, -0.284 for the second.

Going from GGCCGTAA to AGCTAGAT, the “PBM E-score” value falls from 0.286 to -0.205.

First: CCCCTTGA
Second: TAGGTTCA
The “PBM E-score” value of the first is lower: -0.173 for the first, -0.0127 for the second.

Compared with TACTTCCA, ATCCACAC is higher in “PBM E-score” value: -0.0505 for the first, -0.0482 for the second.

Going from CGTCGGTC to AAGTGTCG, the “PBM E-score” value falls from 0.325 to -0.0149.

First: ACTAATCG
Second: GAGCACGA
The “PBM E-score” value of the first is higher: 0.0876 for the first, -0.0895 for the second.

Compared with CGCGCTAG, GCCATACA is lower in “PBM E-score” value: 0.092 for the first, -0.138 for the second.

Compared with GATGATCA, CCCGGAGG is higher in “PBM E-score” value: -0.169 for the first, 0.136 for the second.
